The other results are listed elsewhere or left out.
What follows are molecules tested on HSkMC (human skeletal muscle cells) (assay: cytotoxicity call (relative viability < 0.9)). Details: 10 µM.

Row | Compound | cytotoxicity call
1 | C[C@H](CO)N1C[C@H](C)[C@@H](CN(C)S(=O)(=O)c2cn(C)cn2)Oc2ccc(NC(=O)C3CC3)cc2CC1=O | inactive
2 | Cc1cc([N+](=O)[O-])nn1CC(=O)NC(C)C | inactive
3 | C[C@@H]1CN([C@@H](C)CO)C(=O)Cc2cc(NS(=O)(=O)c3cccs3)ccc2O[C@@H]1CN(C)Cc1ccc(-c2ccccc2)cc1 | inactive
4 | CN(C)CCCNC(=O)C[C@H]1CC[C@H]2[C@H](COc3ccc(NC(=O)c4cccc(F)c4)cc3C(=O)N2C)O1 | inactive
5 | O=C(Cn1ccc([N+](=O)[O-])n1)n1cccn1 | inactive
6 | COc1ccc(NC(=O)Nc2ccc3c(c2)C(=O)N([C@@H](C)CO)C[C@H](C)[C@H](CN(C)S(=O)(=O)c2ccc(C)cc2)OCCCC[C@H](C)O3)cc1 | inactive
7 | COC(=O)c1cn(CC(=O)O)nn1 | inactive
8 | C[C@@H]1CN([C@@H](C)CO)C(=O)c2cc(NC(=O)c3ccncc3)ccc2O[C@@H]1CN(C)C(=O)Nc1ccc2c(c1)OCO2 | inactive
9 | O=C(Nc1ccc([N+](=O)[O-])cc1Cl)c1cc(Cl)ccc1O | active
10 | Cc1ccc(S(=O)(=O)N2C[C@H](O)COC[C@H]3O[C@H](CC(=O)NCc4ccc5c(c4)OCO5)CC[C@@H]32)cc1 | inactive
11 | C[C@@H]1CN([C@@H](C)CO)C(=O)c2cc(NS(=O)(=O)c3cccs3)ccc2O[C@@H]1CN(C)Cc1ccc(-c2ccccc2)cc1 | inactive
12 | COc1ccc(NC(=O)N(C)C[C@@H]2OCCCC[C@H](C)Oc3ccc(NC(=O)c4ccccc4)cc3C(=O)N([C@H](C)CO)C[C@@H]2C)cc1 | inactive
13 | Cc1ccc(S(=O)(=O)Nc2ccc3c(c2)C(=O)N([C@H](C)CO)C[C@@H](C)[C@@H](CN(C)C(=O)Cc2ccccc2)OCCCC[C@H](C)O3)cc1 | inactive
14 | C[C@@H]1CN([C@@H](C)CO)C(=O)c2cccc(NC(=O)c3ccc(-c4nccs4)cc3)c2O[C@H]1CN(C)C(=O)Nc1ccc(F)cc1 | inactive
15 | COCC(=O)N[C@@H]1C=C[C@@H](CC(=O)N2CCCCC2)O[C@H]1CO | inactive
16 | Cc1noc(C)c1NC(=O)Nc1ccc2c(c1)C(=O)N([C@@H](C)CO)C[C@@H](C)[C@H](CN(C)Cc1ccncc1)OCCCC[C@@H](C)O2 | inactive

Row | Compound | cytotoxicity call
17 | CC(=O)OCC1=C(C(=O)[O-])N2C(=O)C(NC(=O)CSc3ccncc3)C2SC1.[Na+] (configuration not stated) | inactive
18 | CC(=O)OCC(=O)C1(O)C(OC(C)=O)CC2C3CCC4=CC(=O)C=CC4(C)C3(F)C(O)CC21C (configuration not stated) | inactive
19 | S=C1NCN(Cc2ccncc2)CN1 | inactive
20 | Cc1noc(C)c1NC(=O)Nc1ccc2c(c1)C(=O)N([C@H](C)CO)C[C@H](C)[C@H](CN(C)Cc1ccccc1)OCCCC[C@H](C)O2 | inactive
21 | Cc1ccc(OC(=O)N(C)C[C@@H]2OCc3ccccc3-c3ccccc3C(=O)N([C@H](C)CO)C[C@H]2C)cc1 | inactive
22 | C[C@H]1CN([C@@H](C)CO)S(=O)(=O)c2ccc(Br)cc2O[C@H]1CN(C)S(=O)(=O)c1ccccc1 | inactive
23 | N#CC(c1ccc(Cl)cc1)c1c(Cl)cc(-n2ncc(=O)[nH]c2=O)cc1Cl (configuration not stated) | inactive
24 | COc1ccc2c(c1)[C@@]1(CC(=O)N(Cc3ccccc3)C1=O)C(=O)N2CCCn1c(=O)n(C)c2ccccc21 | inactive
25 | O=C(C1=C[C@H](c2ccc3c(c2)Cc2ccccc2-3)C[C@H](OCc2ccc(CO)cc2)O1)N1CCN(Cc2ccc3c(c2)OCO3)CC1 | inactive
26 | O=C(N/N=C/[C@H](O)[C@@H](O)[C@H](O)CO)c1ccccn1 | inactive
27 | CN(C)CCCN1C(=O)[C@@]2(Cc3ccccc31)c1ccccc1C(=O)N(C1CCCCC1)[C@H]2c1ccc(CO)cc1 | inactive
28 | CNC[C@@H]1OCCCC[C@@H](C)Oc2ccc(NS(=O)(=O)c3cn(C)cn3)cc2C(=O)N([C@@H](C)CO)C[C@H]1C | inactive
29 | COc1ccc(NC(=O)N(C)C[C@@H]2OCCCC[C@@H](C)Oc3ccc(NS(=O)(=O)c4ccc(C)cc4)cc3C(=O)N([C@@H](C)CO)C[C@@H]2C)cc1 | inactive
30 | CCCC(=O)Nc1ccc2c(c1)OC[C@H](C)N(Cc1ccc(-c3ccccn3)cc1)C[C@@H](C)[C@@H](OC)CN(C)C2=O | inactive
31 | COc1ccc(NC(=O)Nc2ccc3c(c2)C(=O)N([C@@H](C)CO)C[C@@H](C)[C@H](CN(C)Cc2ccc(Cl)c(Cl)c2)O3)cc1 | inactive
32 | CC(=O)N(C)C[C@H]1Oc2ncc(C#C[C@@H](C)O)cc2C(=O)N([C@@H](C)CO)C[C@H]1C | inactive

Reference: the antibiotic and cytotoxicity screens of Wong et al. (2023)
